# Screen size: about 310,000 compounds; about 11,000 (3.5%) were called active. Inconclusive results, whose numbers are uncertain, are shown with a selection of clear calls. Calls follow the shape of the dose curve; as a rule, active = well fitted inhibition curve with a large enough effect; inconclusive = small, poorly fitted or top-dose-only effect, or effect the other way; inactive = flat fitted curve, though single readings scatter. Potencies of inconclusive entries are left out as doubtful fits.
# Experiment: VP16 counterscreen qHTS for inhibitors of ROR gamma transcriptional activity;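 also: Gal4-VP16 expression switched on by copper sulfate through the metallothionein promoter; nearly all actives have a fitted effect of over 50% in size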
# Conditions: Drosophila S2 Gal4-VP16 UAS-luciferase, luminescence, 20 h; series mostly up to 53.6 µM
# Potency is read from the fitted curve at half-maximal effect; tags tell the direction and shape of the fitted curve.
row,SMILES,Potency
1,C#CCOCCOCCOCCNc1nc(N2CCN(C(=O)[C@H]([C@@H](C)CC)n3cc([C@@H](N)CC(C)C)nn3)CC2)nc(N2CCN(C(=O)[C@H](Cc3cc4ccccc4[nH]3)n3cc([C@@H](N)Cc4ccc(O)cc4)nn3)CC2)n1,inactive
2,COc1ccc(Cl)cc1NC(=S)Nc1cccc(C)c1,"inconclusive [inhibitor, single point]"
3,COc1ccc(CN(C(=O)c2ccccc2Br)C2CCS(=O)(=O)C2)cc1 (stereo not given),"inconclusive [inhibitor, single point]"
4,O=C1C=CC2(OCCCO2)C(Br)=C1CO,"inconclusive [inhibitor, single point]"
5,CCC/C=C(\CCC)C(NS(=O)(=O)c1ccccc1)c1ccc(C(F)(F)F)cc1 (stereo not given),"inconclusive [inhibitor, single point]"
6,N#Cc1cccc(-n2c(-c3ccccc3)nnc2-c2ccccc2)c1C#N,inactive
7,Cc1ccc(C)c(C(=O)Nc2cc(C)nn2-c2nc(C)cc(C)n2)c1,"inconclusive [inhibitor, full curve, poor fit]"
8,COc1ccccc1NC(=O)CSc1nnc(-c2ccccn2)n1Cc1ccco1,"inconclusive [inhibitor, single point]"
9,Brc1c(CSc2nc3ccccc3s2)nc2ncccn12,"inconclusive [activator, full curve, poor fit]"
10,Cc1ccc(NC(=S)N2CCN(c3ncccn3)CC2)cc1C,"inconclusive [inhibitor, single point]"
11,CCOC(=O)C1=C(NC(=S)NC(=O)c2ccccc2)c2ccccc2CC1(C)C,active: 11.2 µM
12,Cc1ccccc1N=C1SC(CC(=O)Nc2ccc3ccccc3c2)C(=O)N1Cc1ccccn1 (stereo not given),"inconclusive [inhibitor, single point]"
13,COc1ccc(NC(=S)N(CCc2c(C)[nH]c3ccccc23)Cc2cccnc2)cc1,inactive
14,COc1cccc(NC(=O)C2C3C=CC(O3)C2C(=O)NCc2cccnc2)c1 (stereo not given),"inconclusive [inhibitor, single point]"
15,O=C(CSc1c2c(nc3cc(Cl)ccc13)CCCC2)NCc1ccco1,inactive
16,CCOC(=O)C1=C(O)/C(=C/c2ccc(CNC(=O)C(=O)Nc3ccc(C)cc3)o2)N=C1C,inactive
17,C=CCc1ccccc1OCC(O)CN1CCN(CCN2C(=O)c3cccc4cccc(c34)C2=O)CC1 (stereo not given),active: 11.2 µM
18,CC(=O)N1CCN(S(=O)(=O)c2cccc(C(=O)Nc3ccc(C)cn3)c2)CC1,inactive
19,CCN(CC)CCn1c(SCC(=O)Nc2cccc(OC)c2)nc2c(sc3ccccc32)c1=O,"inconclusive [activator, single point]"
20,Clc1cccc(Cl)c1CON/C=N/c1ncnc2sccc12,"inconclusive [inhibitor, single point]"
21,CC(C)(C)C1C/C(=C/c2ccccn2)C(=O)/C(=C/c2ccccn2)C1 (stereo not given),"inconclusive [inhibitor, single point]"
22,O=C(N/N=C\c1cccc(OC(=O)c2ccco2)c1)c1ccc2c(c1)OCO2,active: 6.31 µM
23,Cc1cc(/C=N/NC(N)=S)c(C)n1-c1ccc(Cl)c(Cl)c1,active: 3.16 µM

row,SMILES,Potency
1,S=C1NC(c2cccs2)=CC(c2ccc(Br)cc2)N1 (stereo not given),active: 3.98 µM
2,CSc1cc(C)c(OCC(=O)Nc2ccc(NC(C)=O)cc2)c(C)c1,inactive
3,O=C(CSc1ccccc1)N1CCN(c2ccccc2)CC1,"inconclusive [activator, single point]"
4,CCCC(=O)N1CCN(c2ccc(NC(=S)NC(=O)c3cccc(C)c3)cc2)CC1,"inconclusive [inhibitor, single point]"
5,CCOC(=O)c1c(NC(=S)NC(C)=O)sc(C)c1C,active: 11.2 µM
6,Cc1ccc2nc(Cl)c(/C=N/NC(=O)c3ccccc3O)cc2c1,"inconclusive [inhibitor, single point]"
7,CCn1ncc(/C=C/C(=O)NCc2cn(C)nc2C)c1C,inactive
8,CCc1cccc(N=c2c([N+](=O)[O-])nn(-c3ccc(Cl)cc3)n2O)c1,inactive
9,Cc1ccc(N=N/C(=C\O)C(=O)c2ccc(Cl)cc2)cc1,"inconclusive [inhibitor, single point]"
10,CC(OC(=O)CNC(=O)c1ccco1)C(=O)N(C)c1ccccc1 (stereo not given),inactive
11,COc1ccccc1NC(=S)NNC(=O)c1ccc(Cl)cc1Cl,"inconclusive [inhibitor, partial curve, poor fit]"
12,CCOc1ccc(S(=O)(=O)NCc2cccnc2)cc1NC(=O)c1ccccc1F,inactive
13,CC(C)CNc1cc(N2CCCC2)ccc1[N+](=O)[O-],"inconclusive [inhibitor, single point]"
14,CCc1ccc(NC(=S)N2CCCCCCC2)cc1,"inconclusive [inhibitor, single point]"
15,COc1cccc(CN(C)CC(=O)Nc2sc3c(c2C#N)CCC3)c1OC,inactive
16,O=c1oc2ccccc2c(Nc2ccc(Cl)cc2)c1[N+](=O)[O-],"inconclusive [inhibitor, single point]"
17,CC(C)Oc1ccc(C(=O)Nc2ccc(Cl)c(S(=O)(=O)Nc3ccc(Cl)cc3)c2)cc1,"inconclusive [inhibitor, partial curve]"
18,CC1CCC(C(C)C)C(OC(=O)Cn2c(-c3ccc(F)cc3)[n+](C)c3ccccc32)C1 (stereo not given),active: 7.08 µM
19,COc1ccccc1N1CCN(C(=O)c2ccc3nc[nH]c3c2)CC1,"inconclusive [activator, single point]"
20,OC(CNCc1ccncc1)c1ccccc1 (stereo not given),inactive
21,CC(=O)Nc1ccc(S(=O)(=O)NNC(=O)c2cc3c4ccccc4n(C)c3s2)cc1,"inconclusive [inhibitor, single point]"
22,O=C(O)C1C2CCC(O2)C1C(=O)Nc1ccc(O)cc1 (stereo not given),"inconclusive [inhibitor, partial curve, poor fit]"
